Consider 21 molecules from the supplement of paper PMC4723716.

± gives the uncertainty stated by the source. Whole data set: some 9,900 compounds, median “viability index relative to DMSO control” near 1, cut for the lowest 2% near 0.85. The list shows a part of the results.

The test system of this assay is Plasmodium falciparum NF54 stage V gametocytes. Description: viability index relative to DMSO control (fraction); higher = less gametocyte killing. To be noted: 2.5 µM, library set: Broad Institute DOS, incubation time: 72 h. The method in brief:
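Viability index is the count of red-stained particles in a well divided by the plate mean of solvent-only wells. Particles of 20–70 µm2 were counted in one imaged field per well after one to two hours with 3 µl of 2.5 µM MitoTracker Red CMXRos and 0.13% saponin. Before staining, P. falciparum NF54 stage V gametocytes in serum-free medium (0.75% gametocytemia, 1.25% hematocrit, 10 µl, 1,536-well plates) were kept with compound at 2.5 µM for 72 hr at 37°C under low oxygen.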
Turning to `CN1C[C@H]2[C@@H](c3ccccc31)[C@H](CO)N2Cc1ccccc1Cl`, the viability index is 1.03 ± 0.064.

`C[C@H]1CN([C@@H](C)CO)C(=O)c2ccccc2-c2ccccc2CO[C@H]1CN(C)Cc1cccnc1` showed a viability index of 0.97 ± 0.24.

As to `COc1ccccc1CNC(=O)C[C@@H]1C=C[C@H](NC(=O)CC2CC2)[C@H](CO)O1`, the viability index was found to be 0.989 ± 0.039. In the case of `CCS(=O)(=O)N[C@@H]1CC[C@H](CC(=O)NCc2ccc(Cl)cc2)O[C@@H]1CO`, the viability index amounted to 1.06 ± 0.029. As to `CC(C)N(C[C@@H]1[C@H](c2ccccc2)[C@@H](CO)N1S(C)(=O)=O)C(=O)CN(C)C`, the viability index came to 1.01 ± 0.1. `CO[C@H]1CN(C)C(=O)c2cc(NS(=O)(=O)c3cn(C)cn3)ccc2OC[C@@H](C)NC[C@@H]1C` had a viability index of 0.994 ± 0.021. Take `CN(C)CC(=O)N[C@H]1CC[C@@H](CCNC(=O)C2CCC2)O[C@H]1CO`: the viability index was found to be 1.11 ± 0.058.

In turn, `C[C@H]1CN([C@@H](C)CO)C(=O)c2cc(N(C)C)ccc2O[C@H]1CN(C)Cc1ccc(Oc2ccccc2)cc1` had a viability index of 0.959 ± 0.1.

`CS(=O)(=O)N1CC(=O)N2[C@H](CO)[C@H](c3ccc(C#Cc4ccc(F)cc4)cc3)[C@@H]2C1` returned a viability index of 1.017 ± 0.0076. `O=C(N[C@@H]1CC[C@@H](CCn2cc(-c3ccccc3F)nn2)O[C@H]1CO)c1ccc2c(c1)OCO2` showed a viability index of 1.18 ± 0.042. Molecule `COc1ccc2c3c([nH]c2c1)[C@H](CO)N(CC1CC1)C[C@]31CCN(CC1)S(=O)(=O)c1cccc(F)c1` displayed a viability index of 1.04 ± 0.087. As to `Cc1cccc(-c2ccc([C@H]3[C@H]4CNC[C@@H]3N4Cc3cccc(F)c3)cc2)c1`, the viability index amounted to 1.03 ± 0.038. In the case of `COc1cccc(S(=O)(=O)Nc2ccc3c(c2)[C@@H]2C[C@@H](CC(=O)NC4CCCCC4)O[C@@H](CO)[C@@H]2O3)c1`, the viability index was determined as 0.9585 ± 0.0026. Take `COc1ccc2c3c([C@@H](CO)N(Cc4nccs4)C[C@]33CCN(CC4CCCC4)CC3)n(C)c2c1`: the viability index was 0.848 ± 0.029. Consider `O=C(C[C@H]1C=C[C@H](NS(=O)(=O)c2ccccc2)[C@H](CO)O1)NCCN1CCCCC1`, for which the viability index came out at 1.14 ± 0.094. As for `C/C=C/c1ccc([C@@H]2[C@@H](CO)N(C(C)=O)[C@@H]2CNC(=O)c2ccccc2)cc1`, the viability index amounted to 0.932 ± 0.062. In turn, `N#C[C@H]1[C@H](c2ccc(-c3cccnc3)cc2)[C@@H](CO)N1C(=O)C1CCOCC1` had a viability index of 1.12 ± 0.049. The molecule `O=S(=O)(c1cccc(F)c1)N1[C@@H]2CNC[C@H]1[C@H]2c1ccc(-c2ccccc2F)cc1` had a viability index of 1.06 ± 0.051. Consider `CO[C@H](CN(C)S(=O)(=O)c1ccc(C)cc1)[C@@H](C)CN(C(=O)Nc1ccccc1F)[C@@H](C)CO`, for which the viability index worked out at 1.01 ± 0.032. Molecule `COc1ccc2c3c([nH]c2c1)[C@H](CO)N(C[C@]31CN(C1)C(=O)NC(C)C)C(=O)C1CCOCC1` yielded a viability index of 1.04 ± 0.12. `C[C@@H]1CCCCO[C@@H](CN(C)Cc2ccncc2)[C@@H](C)CN([C@H](C)CO)C(=O)c2cc(NS(=O)(=O)c3ccc(Cl)cc3)ccc2O1` returned a viability index of 1.08 ± 0.021.
